From the supplement of paper PMC11417369 come the findings set out here.

The list shows a part of the results.

The assay deals with PfSIP2 AP2 domain 1 (GST-tagged). The assay is described as follows: gcPBM binding intensity (ln(normalized median fluorescence intensity)); higher = stronger DNA binding. The procedure, abridged: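 Binding of GST-tagged P. falciparum DNA-binding domains, expressed in E. coli and used at about 25 μg on average, was carried out for 1 h in 1× PBS containing 1% milk, 0.2 mg/ml BSA, 0.5% salmon testes DNA and 0.03% Triton X-100. The target was an Agilent 4 × 180k array of primer-extended double-stranded 36-bp intergenic genomic probes plus negative controls, read with Alexa488 anti-GST antibody at 488 nm. Binding intensity is the highest Masliner-normalised natural-log median intensity across replicate spots of either probe orientation.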
As for “TCATAAATACATTTTGCATGTAAAATATAGAATACA [TGCATGCA_site755]”, the “gcPBM binding intensity (ln)” value turned out to be 6.92.

Regarding “TCTATAAAATATAAAAGTACGTATCAATAATTAAAA [XGTACX_site8469]”, the “gcPBM binding intensity (ln)” value is 6.93.

As for “AATATTTTTGTCGTTAGTACATAAAAAATAATAATA [XGTACX_site3074]”, the “gcPBM binding intensity (ln)” value is 7.05.

With “AATAATAAAGTGAACACACACATATAATATATATAT [CACACA_site4143]”, the “gcPBM binding intensity (ln)” value is 8.41.

Take “CAAACAAACGAACACACACACACACGCAAAAATGAT [CACACA_site7194]”: the “gcPBM binding intensity (ln)” value was 7.16.

“ATAATTAAAATGCTCACACACATAAAAAAAAATTAA [CACACA_site2149]”: the “gcPBM binding intensity (ln)” value was found to be 6.94.

Consider “ATAATTTTATCATATATATATATATATAAATACTTA [CACACA_negctrl_site743]”, for which the “gcPBM binding intensity (ln)” value stood at 7.36.

In the case of “ATGCTTTTATGCACACGTACAAAAATATTATATAAT [XGTACX_site5589]”, the “gcPBM binding intensity (ln)” value worked out at 7.36.

As to “AAAAATTGAATTTTTTTTTTTTTTTTGAGAAGGAAA [CACACA_negctrl_site1196]”, the “gcPBM binding intensity (ln)” value came to 6.8.

Consider “AACAGATAAAAGGGTACACACATATATACAAGTACA [CACACA_site7959]”, for which the “gcPBM binding intensity (ln)” value was 7.13.

With “TTATGTAGCTAGCTATAAACTTTTTTTTATTTAAAA [CACACA_negctrl_site1297]”, the “gcPBM binding intensity (ln)” value came out at 6.58.

For the sequence “TATATAGATATGATAGTGCATTTTTAGAAAACATAA [GTGCAC_site9962]”, the “gcPBM binding intensity (ln)” value turned out to be 8.69.

Take “ATATATATATATATATGTACATACTATACAATAATT [XGTACX_site3546]”: the “gcPBM binding intensity (ln)” value was determined as 9.52.

“ATTATTATTAAATACACACACATACCTCCATGTTAG [CACACA_site3430]”: the “gcPBM binding intensity (ln)” value was found to be 6.79.

On to “AAATAAAGGAAATAAAAAGAAACCAATTTCGAATAT [CACACA_negctrl_site953]”, for which the “gcPBM binding intensity (ln)” value came to 6.92.

As for “GATATAATTATGTGTACACAATTTTTTTTTTTTTTT [CACACA_site4501]”, the “gcPBM binding intensity (ln)” value turned out to be 7.45.

Consider “ATATGTATGTATAATCGTACAAAATTTGGCGATCTT [XGTACX_site8698]”, for which the “gcPBM binding intensity (ln)” value was found to be 6.75.

As to “TTTTTTTTAAAACTATGTACGTAAAAATTGTAGTTT [XGTACX_site2302]”, the “gcPBM binding intensity (ln)” value was 7.19.

On to “TTTATATGTATTAATTGTACACATATAATGTGTTTT [XGTACX_site3064]”, for which the “gcPBM binding intensity (ln)” value was 6.94.

Consider “ATATAGTAAATTGGTAGTACATAAAATGATTTTATG [XGTACX_site4143]”, for which the “gcPBM binding intensity (ln)” value is 6.94.

In the case of “AGAACTTTTAATGGATGTACAGTTATTTTATTATTT [XGTACX_site6226]”, the “gcPBM binding intensity (ln)” value worked out at 6.79.

Take “ATGAAGAATTTATATTGTACCCATTTTTATGTAAAT [XGTACX_site2528]”: the “gcPBM binding intensity (ln)” value came out at 7.21.

Take “AAAAAAAAAACATACACACATACATACATATATATT [CACACA_site949]”: the “gcPBM binding intensity (ln)” value came to 7.02.

On to CGAAAAAGTGATATAGTGCAAAATTTTCATTTCTCT, for which the “gcPBM binding intensity (ln)” value is 7.86.
